Test results taken from the supplement of paper PMC10338343.
± gives the standard deviation. The list shows a part of the results, in another mix than the full data.

Test system: MIWI (PIWIL1) piRISC loaded with L1MC piRNA (30 nt)
Experiment: pre-steady-state target cleavage rate (min^-1); MIWI and MILI are mouse PIWI proteins and EfPiwi is from a freshwater sponge; tags in brackets are library labels; higher = faster piRNA-guided slicing of the target
Conditions: guide: L1MC piRNA 5'p-UAACUAAAUACUAUGCAAGCUGUAGGUCCU; auxiliary factor: none (no GTSF1)
In short: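 In Cleave-'n-Seq, a transcribed, DNA-blocked target RNA library (0.1 nM) was combined with 1 nM active affinity-purified piRISC bearing one synthetic guide, with or without 500 nM GTSF1 partner protein. Reactions ran in HEPES–potassium acetate buffer at 33 °C for 0–8 or 0–960 min. Uncleaved targets were sequenced and normalised to depth and to weakly complementary targets, three trials were pooled, and k3 was capped at 0.0001 min^-1. The pre-steady-state cleavage rate was obtained by fitting a burst-and-steady-state model.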

Sequence	pre-steady-state target cleavage rate
UCCUGGAACAGCUUGGAUAGUAUUUAGAUA	0.0248 ± 0.0067
UCCUCCUACAGCUUGCAUUGAAUUUAGUUA	0.00617 ± 0.0025
UCCUGGAUGUCGAUGCAUAGUUUUUACUUA	< 0.0001
UCCUGGAUCAGCUUGCAUUGUAUUUACUUA	0.0114 ± 0.0038
UGGACCUUACAGCUUGCAUAGUAUUUAGUUA	0.0853 ± 0.016
UCCACCUAGAGCUUGCAUAGUAUUUAGUAA	0.0167 ± 0.0028
UCCUGGUACAGCUUGCAUACUAUUUACUUA	0.0203 ± 0.0062
UCCUGGUACAGCUUGCAUAGUAGUUUAGUUA	0.00582 ± 0.0023
UCCUGGAUGUCGUUGCAUAGUAUUUAGUUA [g2:g18:cont:t1A]	0.00451 ± 0.0025
UGGAGCUACAGCUUGCAUAGUAUUUUCAAA	0.00487 ± 0.0027
UCCUGGAUGUCGAACCUAUAGUAUUUAGUUA	< 0.0001
UCCUGCUACAGCAACCAUAGUAUUUUCAAA	< 0.0001
UCCUCCUAGCAGCUUGCAUAGUAUUUAGUUA	0.0448 ± 0.0093
UCCUGGAUGUCGAACGUAUCUAAUUUGUUA	< 0.0001
AGGACCUACAGCUUGCAUAGAAUUUAGUAA	0.0293 ± 0.0094
